# Source: PubChem BioAssay AID1460 (National Center for Advancing Translational Sciences (NCATS), 2008)
# Values joined by “and” are separate entries in the source; they are usually repeats but may differ in a detail not shown here. Equal entries are not always repeated. About 5,800 (2.1%) of roughly 270,000 compounds were called active. The inconclusive results got no clear call from the source; some entries with a clear call stand among them for comparison. The call rests on the fitted dose curve; in most records, active means well fitted inhibition curve with a large enough effect; inconclusive means small, poorly fitted or top-dose-only effect; inactive means flat fitted curve, though single readings scatter. Where the call is inconclusive, the potency comes from a doubtful curve fit.
# Molecular target: Microtubule-associated protein tau (Homo sapiens) (UniProt P10636)
# Sequence of UniProt P10636 (P10636 whole entry, looked up): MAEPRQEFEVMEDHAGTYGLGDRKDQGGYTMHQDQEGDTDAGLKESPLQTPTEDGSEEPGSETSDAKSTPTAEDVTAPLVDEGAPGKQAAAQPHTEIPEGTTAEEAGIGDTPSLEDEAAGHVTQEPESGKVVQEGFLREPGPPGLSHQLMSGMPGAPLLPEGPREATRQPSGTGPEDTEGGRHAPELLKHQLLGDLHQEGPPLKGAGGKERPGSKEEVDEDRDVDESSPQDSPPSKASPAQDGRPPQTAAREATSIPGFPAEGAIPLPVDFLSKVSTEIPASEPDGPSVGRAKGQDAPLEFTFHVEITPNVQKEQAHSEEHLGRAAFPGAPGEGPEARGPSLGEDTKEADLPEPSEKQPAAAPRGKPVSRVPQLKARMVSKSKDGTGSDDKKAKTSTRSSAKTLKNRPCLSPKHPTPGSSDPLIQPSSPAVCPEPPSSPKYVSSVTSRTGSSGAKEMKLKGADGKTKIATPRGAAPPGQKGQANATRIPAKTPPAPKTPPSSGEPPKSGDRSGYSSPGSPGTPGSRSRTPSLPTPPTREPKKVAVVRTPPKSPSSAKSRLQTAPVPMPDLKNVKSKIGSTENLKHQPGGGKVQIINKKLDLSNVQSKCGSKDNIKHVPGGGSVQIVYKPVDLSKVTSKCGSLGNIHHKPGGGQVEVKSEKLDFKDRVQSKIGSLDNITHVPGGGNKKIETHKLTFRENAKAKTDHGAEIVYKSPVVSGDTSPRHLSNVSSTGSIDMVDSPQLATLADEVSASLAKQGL
# Experiment: qHTS for Inhibitors of Tau Fibril Formation, Thioflavin T Binding; further: nearly all actives have a fitted effect of over 55% in size
# Settings: recombinant tau K18 P301L, heparin-induced fibrillization, ThT fluorescence; series mostly up to 57.4 µM; activity, negative = inhibition: at the top concentration
# Procedure, shortened: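 ThT emission at 510 nm, taken 1 hr after adding 30 uM dye, quantifies aggregates formed when 20 uM heparin acts on human tau K18 P301L for 6 hr at 37 C.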
# On the % scale 0 is the no-effect control and ±100 the full control effect; potency means the concentration at half of the fitted maximal effect; tags describe the fitted curve by direction and shape.
SMILES,Potency,"activity, negative = inhibition"
O=[N+]([O-])c1cc(S(=O)(=O)C(F)(F)F)ccc1Sc1nc2ccccc2s1,active: 15.8 µM,
O=C(O)CSc1cc(C(=O)c2ccccc2O)cn2c(=O)c3c4c(sc3nc12)CCCC4,"inconclusive: 35.5 µM [inhibitor, single point]",
CCN1CCN(C(=O)c2ccc3c(c2)N(Cc2cccc(F)c2)C(=O)c2ccccc2S3)CC1,"inconclusive: 11.2 µM [inhibitor, partial curve, poor fit]",
Cc1c(N2C(=O)/C(=C\c3ccccc3O)SC2=S)c(=O)n(-c2ccccc2)n1C,active: 31.6 µM,
CO[C@H]1COC(=O)CCC[C@@H](C)[C@H](OC)COC(=O)[C@H]2CCCN2C(=O)C/C=C\[C@@H]1C,,inactive: -20.9% [at 11.5 µM]
Cc1nn(C)c(=O)n1-c1ccccc1,,inactive: -1.53%
Cc1ccc2c(CC(=O)N3CCN(c4ccccc4)CC3)coc2c1,"inconclusive: 20 µM [inhibitor, single point]",
Clc1nc(Nc2ccc(N3CCOCC3)cc2)c2ccccc2n1,"inconclusive: 12.6 µM [inhibitor, partial curve]",
O=C(COc1ccc(C(=S)N2CCOCC2)cc1Cl)Nc1ccccc1Cl,,inactive: -11.6%
Cc1ccc(Cl)cc1N1CCN(C(=O)Cc2c(C(=O)O)[nH]c3ccc(Cl)cc23)CC1,"inconclusive: 39.8 µM [inhibitor, single point]",
COc1ccc2nc(NC(=S)N(C)C)sc2c1,"inconclusive: 6.31 µM [inhibitor, partial curve]",
COc1ccc(Cl)cc1NS(=O)(=O)c1ccc(OC)c(OC)c1,,inactive: 4.98%
COCC(=O)Oc1c(Sc2ccccc2[N+](=O)[O-])c(C)nn1C(C)(C)C,,inactive: -15.2%
CCNC(=O)CC1C(=O)N(C)C(=S)N1NC(=O)c1ccc(Cl)cc1 (configuration not stated),,inactive: -12.2%
COc1ccc(C(=O)/C=C/c2ccc(N3CCCCC3)c([N+](=O)[O-])c2)c(OC)c1,active: 3.98 µM,
Cc1cccc(-c2nc(SCC(=O)Nc3ccc4c(c3)OCO4)c(-c3ccccc3)[nH]2)c1,"inconclusive: 6.31 µM [inhibitor, partial curve]",
O=C(CCn1c(=O)c2cccn2c2cccnc21)N1CCN(c2cccc(Cl)c2)CC1,"inconclusive: 31.6 µM [inhibitor, single point]",
COc1ccc(CNC(=O)c2cc(-c3ccco3)on2)cc1,,inactive: -7.74%
Cc1nc(Nc2ccc3c(c2)OCO3)c2oc3ccccc3c2n1,"inconclusive: 14.1 µM [inhibitor, partial curve]",
CCC1=NN2C(=N)/C(=C\c3ccc(OCc4cc(=O)n5nc(CC)sc5n4)c(OC)c3)C(=O)N=C2S1,active: 11.2 µM,
Cc1cccc(-n2c(Cc3cc(=O)[nH]c(=O)[nH]3)nnc2SCC(=O)NCC2CCCO2)c1 (configuration not stated),,inactive: -3.16%
Cc1ccc(-c2nc3cc(Br)cnc3nc2-c2ccc(C)cc2)cc1,"inconclusive: 28.2 µM [inhibitor, single point]",
N#Cc1cccc(NC(=O)C2CCN(c3ncccn3)CC2)c1,,inactive: -3.67%
COc1cc(C2Nc3cccc4cccc(c34)N2)cc(OC)c1OC(C)=O,"inconclusive: 5.01 µM [inhibitor, full curve]",

SMILES,Potency,"activity, negative = inhibition"
CCOc1cc(/C=N/NS(=O)(=O)c2ccccc2)ccc1OS(=O)(=O)c1ccc(C)cc1,,inactive: -9.17%
CN1/C(=C\C(=O)COC(=O)c2ccc(O)c(O)c2)C(C)(C)c2ccccc21,"inconclusive: 12.6 µM [inhibitor, partial curve]",
O=c1cc(Nc2ccc3c(c2)OCO3)[nH]c(=O)n1-c1ccc(Br)cc1,"inconclusive: 17.8 µM [inhibitor, single point]",
N#CC1=C(N)N(c2ccc(F)cc2)C2=C(C1c1ccc(O)cc1)S(=O)(=O)CC2 (configuration not stated),active: 15.8 µM,
O=C1CCCCCN1Cc1nnc(SCc2nc3ccccc3s2)n1-c1ccccn1,"inconclusive: 22.4 µM [inhibitor, single point]",
CCn1c2ccccc2c2cc(NC(=O)COc3ccc(C)c(C)c3)ccc21,"inconclusive: 2.51 µM [inhibitor, full curve]",
COC(=O)c1ccc(/C=N/Nc2nc(-c3ccc(Cl)cc3Cl)cs2)cc1,"inconclusive: 3.98 µM [inhibitor, partial curve]",
CC(C)N1CCc2c(sc(NC(=O)c3nc4ccccc4s3)c2C(N)=O)C1,"inconclusive: 11.2 µM [inhibitor, partial curve]",
CC1CC(C)CN(S(=O)(=O)c2ccc(C(=O)NCCCn3ccnc3)cc2)C1 (configuration not stated),,inactive: 4.58%
C=CCOC(=O)C1(C(NC(=O)OC)c2ccccc2)C(=O)Cc2ccccc21 (configuration not stated),,inactive: -5.45%
NC(=S)N/N=C/c1ccc(C(F)(F)F)cc1,,inactive: -0.554%
COc1ccc(C2CC23N=C(c2ccccc2)OC3=O)cc1 (configuration not stated),"inconclusive: 2.51 µM [inhibitor, partial curve]",
Cc1nn2c3ccccc3nc2c2ccccc12,"inconclusive: 28.2 µM [inhibitor, partial curve]",
CC(=O)N1CCN(c2ccc(NCc3ccccc3)cc2)CC1,"inconclusive: 25.1 µM [inhibitor, partial curve]",
O=C(Nc1ccc(SC(F)F)cc1)c1cccc2nc3ccccc3nc12,"inconclusive: 11.2 µM [inhibitor, partial curve]",
COc1ccc2c(c1)c1c(c(=O)n(-c3ccccc3C)c(=O)n1CC(=O)Nc1c(C)cccc1C)n2C,,inactive: 1.94%
Cc1cccc(/C=N/NC(=O)c2cccc([N+](=O)[O-])c2)n1,"inconclusive: 12.6 µM [inhibitor, partial curve]",
Oc1cccc(C=NCc2ccccc2)c1O,active: 7.94 µM,
O=C(Nc1ccc(Br)cn1)c1cccc2c1-c1ccccc1C2=O,"inconclusive: 7.08 µM [inhibitor, single point]",
Cc1nnc2ccc(-c3cccc(NC(=O)c4ccc(Br)o4)c3)nn12,"inconclusive: 14.1 µM [inhibitor, partial curve]",
Nc1cc(-c2ccccc2)ccc1O,"inconclusive: 31.6 µM [inhibitor, single point] and inconclusive: 14.1 µM [inhibitor, partial curve]",
O=C(CCn1nnc2ccccc21)Nc1nnc(Cc2ccccc2)s1,"inconclusive: 25.1 µM [inhibitor, partial curve]",
COCCn1nnnc1C(c1cc2c(C)cc(C)cc2[nH]c1=O)N1CCCCCC1 (configuration not stated),"inconclusive: 35.5 µM [inhibitor, single point]",
CCCCn1nc2cc(C(=O)NCc3ccc(C(F)(F)F)cc3C(F)(F)F)ccc2c1OCC,"inconclusive: 44.7 µM [inhibitor, single point]",

SMILES,Potency,"activity, negative = inhibition"
Cn1c(COc2ccc(Br)cc2)nnc1SC1CCc2ccccc2C1=O (configuration not stated),active: 31.6 µM,
CC(CNc1ccccc1O)C(=O)O (configuration not stated),active: 28.2 µM,
C=CCNC(=O)c1ccc(-c2nc(-c3ccccc3)cs2)cc1,"inconclusive: 0.251 µM [inhibitor, full curve, poor fit]",
COc1ccc(Br)cc1/C=N/NC(=O)c1ccc(COc2ccc3c(c2)CCC3)o1,"inconclusive: 6.31 µM [inhibitor, full curve]",
Cc1cc(O)c(C(C)C)cc1C1(c2cc(C(C)C)c(O)cc2C)OC(=O)c2ccccc21,"inconclusive: 11.2 µM [inhibitor, partial curve]",
O=C1N=NC2=C1c1c3ccccc3c(O)n1CC2,,inactive: -2.29%
O=C1C=C(Nc2ccccc2)C(=O)c2ccccc21,"inconclusive: 7.08 µM [inhibitor, partial curve]",
CS(=O)(=O)N(CC(=O)N1CCCCCC1)Cc1ccc(Cl)cc1,,inactive: -22.8%
CCc1ccc(-n2c(=O)c3c4c(sc3n(CC(=O)NC(C)CC)c2=O)CCCC4)cc1 (configuration not stated),,inactive: 5.11%
COc1ccc(CN2C(=O)Cc3c2nc(N)c2c(N)nc(N4CCCCC4)c(C#N)c32)cc1,"inconclusive: 20 µM [inhibitor, partial curve]",
CCN(CC)S(=O)(=O)c1ccc(C(=O)NCCc2cc3c(OC)ccc(OC)c3[nH]c2=O)cc1,,inactive: -27.6%
Cn1c(=O)[nH]c2cc(-c3noc(-c4ccc(F)cc4)n3)ccc21,,inactive: -16.3%
COc1ccc(-c2cnc(C)o2)cc1S(=O)(=O)Nc1ccc(C)c(N(C)C)c1,,inactive: 4.56%
O=S(=O)(Nc1ccc(-n2cnnn2)cc1)c1ccc(F)c(F)c1F,,inactive: -8.3%
Cc1cccc(N2CC(=O)N(c3cccc(C)c3)CC2=O)c1,,inactive: 1.68%
CN(c1ccccc1)c1ccc(/C=c2\s/c(=C(/C#N)C(=O)C(C)(C)C)n(Cc3ccco3)c2=O)cc1,"inconclusive: 7.94 µM [inhibitor, partial curve]",
Cc1cc2ncn(/N=C/c3ccc([N+](=O)[O-])o3)c2cc1C,"inconclusive: 8.91 µM [inhibitor, partial curve]",
O=C1CC(c2ccc(Cl)cc2)Sc2nc(-c3ccc(F)cc3)nn21 (configuration not stated),,inactive: -9.46%
COc1ccc(-c2nc(NC(=O)c3ccc(OCC(=O)Nc4ccc(F)cc4)c(OC)c3)sc2C)cc1,,inactive: -12.4%
CCOc1ccc(-c2csc(NC(=O)CSCC(=O)O)n2)c2ccccc12,"inconclusive: 5.62 µM [inhibitor, partial curve]",
CSc1ccc(S(=O)(=O)NCc2ccccc2Cl)cc1,,inactive: -4.36%
C[C@@]12CC(=O)NC1N(C(=O)c1cccc(C(F)(F)F)c1)C(c1ccccc1OC(=O)c1cccc(C(F)(F)F)c1)C2 (some centres not stated),"inconclusive: 28.2 µM [inhibitor, partial curve]",
Cc1ccc(NC(=O)CCC(=O)N2Cc3ccccc3Oc3ncccc32)cc1,,inactive: 1.46%
O=[N+]([O-])c1ccc(C2Nc3cccc4cccc(c34)N2)cc1,active: 14.1 µM,
